The results in this text go back to the supplement of paper PMC4967469.

Compound in this assay: CC[C@H](Nc1ncnc2[nH]cnc12)c1nc2cccc(F)c2c(=O)n1-c1ccccc1 [CAL-101]
The assay can be described thus: Viability of human cancer cell lines after 72 h of drug (GDSC screen). Here is the method: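 Human cancer cell lines in 384-well plates, medium with 10% serum, drug for 72 h over a 256-fold dose range (nine 2-fold or five 4-fold steps up to the top dose). Adherent lines were fixed and stained with the nucleic acid dye Syto60, suspension lines read with resazurin; signal relative to control wells, capped at 0 and 100%. One two-parameter sigmoid per drug and line, fitted in a mixed model over all curves with the slope shared within a line.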

The IC50 comes from the fitted curve, where viability falls to half of the control; fits outside the tested doses are given as limits. AUC, from the same fit, is the share of area under the viability curve across the 256-fold dose range; it is 1 without any effect and falls as sensitivity rises.

With “IHH-4 (thyroid, semi-adherent, top dose 20 µM)”, the AUC was 0.992 and the IC50 was over 20 µM.

Regarding “IM-95 (stomach, adherent, top dose 20 µM)”, the AUC was 0.904 and the IC50 is over 20 µM.

For “IMR-5 (neuroblastoma, adherent, top dose 20 µM)”, the AUC amounted to 0.984 and the IC50 was over 20 µM.

For the cell line “IPC-298 (melanoma, adherent, top dose 20 µM)”, the AUC turned out to be 0.98 and the IC50 is over 20 µM.

Regarding “IST-MEL1 (melanoma, adherent, top dose 20 µM)”, the AUC amounted to 0.892 and the IC50 is over 20 µM.

For the cell line “IST-MES1 (mesothelioma, adherent, top dose 20 µM)”, the AUC worked out at 0.979 and the IC50 was over 20 µM.

For the cell line “IST-SL1 (small cell lung carcinoma, semi-adherent, top dose 20 µM)”, the AUC came to 0.968 and the IC50 is over 20 µM.

“IST-SL2 (small cell lung carcinoma, suspension, top dose 20 µM)”: the AUC was 0.894 and the 50% inhibitory concentration (IC50) was over 20 µM.

Take J82 (bladder, adherent, top dose 20 µM): the AUC amounted to 0.969 and the IC50 is over 20 µM.

With “JAR (urogenital system, adherent, top dose 20 µM)”, the AUC came out at 0.893 and the IC50 is over 20 µM.

Take “JEG-3 (urogenital system, adherent, top dose 20 µM)”: the AUC amounted to 0.988 and the IC50 is over 20 µM.

Regarding JHH-1 (liver, adherent, top dose 20 µM), the AUC was 0.849 and the half-maximal inhibitory concentration (IC50) is 17 µM.

Consider JHH-2 (liver, adherent, top dose 20 µM), for which the AUC was 0.983 and the IC50 is over 20 µM.

For JHH-4 (liver, adherent, top dose 20 µM), the AUC came out at 0.961 and the IC50 is over 20 µM.

For JHH-6 (liver, adherent, top dose 20 µM), the AUC amounted to 0.986 and the IC50 was over 20 µM.

Turning to JHH-7 (liver, adherent, top dose 20 µM), the AUC amounted to 0.989 and the half-inhibitory concentration (IC50) was over 20 µM.

As to “JHOS-2 (ovary, adherent, top dose 20 µM)”, the AUC was determined as 0.979 and the IC50 was over 20 µM.

On to “JHOS-3 (ovary, adherent, top dose 20 µM)”, for which the AUC is 0.964 and the 50% inhibitory concentration (IC50) is over 20 µM.

For “JHU-011 (head and neck, adherent, top dose 20 µM)”, the AUC turned out to be 0.943 and the IC50 is over 20 µM.

Consider “JHU-022 (head and neck, adherent, top dose 20 µM)”, for which the AUC stood at 0.947 and the IC50 is over 20 µM.

On to “JIMT-1 (breast, adherent, top dose 20 µM)”, for which the AUC was determined as 0.969 and the half-maximal inhibitory concentration (IC50) is over 20 µM.

For “JJN-3 (haematopoietic neoplasm, suspension, top dose 20 µM)”, the AUC was found to be 0.983 and the IC50 is over 20 µM.

Regarding “JM1 (B-cell lymphoma, suspension, top dose 20 µM)”, the AUC was 0.878 and the IC50 came out at 15.4 µM.

As to “JSC-1 (B-cell lymphoma, suspension, top dose 20 µM)”, the AUC came to 0.917 and the IC50 is over 20 µM.

On to “JURL-MK1 (chronic myeloid leukaemia, suspension, top dose 20 µM)”, for which the AUC is 0.975 and the IC50 is over 20 µM.

“JVM-2 (lymphoid neoplasm, suspension, top dose 20 µM)”: the AUC stood at 0.921 and the concentration for half-maximal inhibition (IC50) is over 20 µM.

Turning to “JVM-3 (lymphoid neoplasm, suspension, top dose 20 µM)”, the AUC is 0.987 and the IC50 was over 20 µM.

In the case of “JiyoyeP-2003 (Burkitt lymphoma, suspension, top dose 20 µM)”, the AUC was determined as 0.991 and the IC50 is over 20 µM.

K2 (melanoma, adherent, top dose 20 µM): the AUC turned out to be 0.975 and the half-maximal inhibitory concentration (IC50) was over 20 µM.

As to K5 (thyroid, adherent, top dose 20 µM), the AUC came out at 0.944 and the IC50 was over 20 µM.

As for “KALS-1 (glioma, adherent, top dose 20 µM)”, the AUC is 0.879 and the IC50 is over 20 µM.

Consider “KARPAS-45 (lymphoblastic leukaemia, suspension, top dose 20 µM)”, for which the AUC stood at 0.684 and the half-inhibitory concentration (IC50) worked out at 3.7 µM.

As for “KARPAS-299 (anaplastic large cell lymphoma, suspension, top dose 20 µM)”, the AUC came to 0.983 and the IC50 is over 20 µM.

Turning to “KARPAS-620 (haematopoietic neoplasm, suspension, top dose 20 µM)”, the AUC was determined as 0.745 and the IC50 amounted to 5.53 µM.

“KASUMI-1 (acute myeloid leukaemia, suspension, top dose 20 µM)”: the AUC stood at 0.633 and the IC50 amounted to 2.92 µM.

“KCL-22 (chronic myeloid leukaemia, suspension, top dose 20 µM)”: the AUC was found to be 0.966 and the IC50 is over 20 µM.

On to “KE-37 (lymphoblastic leukaemia, suspension, top dose 20 µM)”, for which the AUC turned out to be 0.644 and the IC50 was found to be 2.82 µM.

Regarding “KELLY (neuroblastoma, adherent, top dose 20 µM)”, the AUC worked out at 0.989 and the IC50 was over 20 µM.

On to “KG-1 (acute myeloid leukaemia, suspension, top dose 20 µM)”, for which the AUC was 0.936 and the half-maximal inhibitory concentration (IC50) was over 20 µM.

KGN (ovary, adherent, top dose 20 µM): the AUC was determined as 0.854 and the IC50 was over 20 µM.

Turning to “KINGS-1 (glioma, adherent, top dose 20 µM)”, the AUC stood at 0.946 and the IC50 is over 20 µM.

“KLE (endometrium, adherent, top dose 20 µM)”: the AUC is 0.893 and the IC50 was over 20 µM.

“KM12 (large intestine, adherent, top dose 20 µM)”: the AUC was determined as 0.972 and the half-inhibitory concentration (IC50) is over 20 µM.

As to “KM-H2 (Hodgkin lymphoma, suspension, top dose 20 µM)”, the AUC worked out at 0.965 and the IC50 is over 20 µM.

For “KMH-2 (thyroid, adherent, top dose 20 µM)”, the AUC is 0.97 and the 50% inhibitory concentration (IC50) was over 20 µM.

As to “KMOE-2 (acute myeloid leukaemia, suspension, top dose 20 µM)”, the AUC came out at 0.934 and the half-maximal inhibitory concentration (IC50) was over 20 µM.

With “KMRC-1 (kidney, adherent, top dose 20 µM)”, the AUC was 0.98 and the IC50 was over 20 µM.

Take “KMRC-20 (kidney, adherent, top dose 20 µM)”: the AUC came to 0.984 and the IC50 was over 20 µM.

Take “KMS-11 (myeloma, suspension, top dose 20 µM)”: the AUC is 0.991 and the IC50 is over 20 µM.

As for “KMS-12-BM (myeloma, suspension, top dose 20 µM)”, the AUC came to 0.913 and the IC50 was over 20 µM.

Consider “KNS-42 (glioma, adherent, top dose 20 µM)”, for which the AUC worked out at 0.98 and the IC50 was over 20 µM.

Consider “KNS-81-FD (glioma, adherent, top dose 20 µM)”, for which the AUC stood at 0.959 and the concentration for half-maximal inhibition (IC50) was over 20 µM.

Consider “KON (head and neck, adherent, top dose 20 µM)”, for which the AUC was 0.985 and the half-maximal inhibitory concentration (IC50) was over 20 µM.

For the cell line “KOPN-8 (B-cell leukaemia, suspension, top dose 20 µM)”, the AUC came to 0.925 and the concentration for half-maximal inhibition (IC50) is over 20 µM.

As for “KP-1N (pancreas, adherent, top dose 10.24 µM)”, the AUC amounted to 0.896 and the half-inhibitory concentration (IC50) is over 10.2 µM.

In the case of “KP-2 (pancreas, adherent, top dose 20 µM)”, the AUC was found to be 0.933 and the 50% inhibitory concentration (IC50) is over 20 µM.

Turning to “KP-3 (pancreas, adherent, top dose 20 µM)”, the AUC was 0.932 and the half-maximal inhibitory concentration (IC50) was over 20 µM.

Turning to “KP-4 (pancreas, adherent, top dose 20 µM)”, the AUC stood at 0.911 and the concentration for half-maximal inhibition (IC50) is over 20 µM.

Turning to “KP-N-YN (neuroblastoma, adherent, top dose 20 µM)”, the AUC was found to be 0.986 and the IC50 was over 20 µM.

On to “KP-N-YS (neuroblastoma, adherent, top dose 20 µM)”, for which the AUC is 0.922 and the IC50 is over 20 µM.

As to KS-1 (glioma, adherent, top dose 20 µM), the AUC is 0.902 and the IC50 is over 20 µM.

“KU812 (chronic myeloid leukaemia, suspension, top dose 20 µM)”: the AUC is 0.41 and the IC50 came to 0.724 µM.

Regarding “KU-19-19 (bladder, adherent, top dose 20 µM)”, the AUC came to 0.986 and the concentration for half-maximal inhibition (IC50) is over 20 µM.

As for “KURAMOCHI (ovary, adherent, top dose 20 µM)”, the AUC is 0.902 and the IC50 is over 20 µM.

In the case of “KY821 (leukaemia, suspension, top dose 20 µM)”, the AUC stood at 0.985 and the IC50 was over 20 µM.

In the case of “KYAE-1 (oesophagus, suspension, top dose 20 µM)”, the AUC amounted to 0.852 and the IC50 is 18.1 µM.

“KYM-1 (rhabdomyosarcoma, adherent, top dose 20 µM)”: the AUC was 0.991 and the IC50 was over 20 µM.

Usually IC50 stands for the midpoint of a concentration-inhibition curve.
